PubChem BioAssay AID1745853 (National Center for Advancing Translational Sciences (NCATS), 2022)
This is one part of the list. Further columns of the screen follow, without active or inactive calls.

What was measured:
Assay in all cases: Primary Screen for Target Class Profiling of Small Molecule Inhibitors of Methyltransferases
[1] = target: Glycine N-methyltransferase (Homo sapiens) (UniProt Q14749); conditions: purified enzyme, MTase-Glo SAH luminescence; measured here: GNMT inhibition; at 40 µM; stronger effect = lower value
Method in brief: (§1)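 Each enzyme was assayed with SAM and its substrate. SAH formation detected by MTase-Glo luminescence; single-point 40 uM screen[…].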

[2] = target: Guanidinoacetate N-methyltransferase (Homo sapiens) (UniProt Q14353); conditions: purified enzyme, MTase-Glo SAH luminescence; measured here: GAMT inhibition; at 40 µM; stronger effect = lower value
Method in brief: as §1

[3] = target: Histamine N-methyltransferase (Homo sapiens) (UniProt P50135); conditions: purified enzyme, MTase-Glo SAH luminescence; measured here: HNMT inhibition; at 40 µM; stronger effect = lower value
Method in brief: as §1

[4] = target: Nicotinamide N-methyltransferase (Homo sapiens) (UniProt P40261); conditions: purified enzyme, MTase-Glo SAH luminescence; measured here: NNMT inhibition; at 40 µM; stronger effect = lower value
Method in brief: as §1

[5] = target: Phenylethanolamine N-methyltransferase (Homo sapiens) (UniProt P11086); conditions: purified enzyme, MTase-Glo SAH luminescence; measured here: PNMT inhibition; at 40 µM; stronger effect = lower value
Method in brief: as §1
% is set by controls: 0 for no effect and ±100 for the full control effect.

Structure (SMILES) | activity change, negative = inhibition [1] [%] | activity change, negative = inhibition [2] [%] | activity change, negative = inhibition [3] [%] | activity change, negative = inhibition [4] [%] | activity change, negative = inhibition [5] [%]
COc1ccccc1OCc1cc(C(=O)N2CCCCCCCC2)n[nH]1 | -8.19 | -6.65 | -3.01 | -10.8 | 5.85
CCC(C)NC(=O)c1ccc2c(=O)n(C3CC3)c3nn(CC(=O)Nc4ccccc4)c(=O)n3c2c1 (stereo not given) | 4.31 | 0 | 10.9 | -2.3 | 5.03
CCN1CCN(CCNC(=O)c2cc3n(n2)CC(C)(C(=O)NCCC(C)C)N(C)C3=O)CC1 (stereo not given) | -0.216 | 5.44 | -6.92 | 2.23 | -1.74
COc1cc(OC)cc(-c2cc3cnc(N)nc3nc2NC(=O)NC(C)(C)C)c1 | -4.71 | 5.35 | 0.076 | -8.76 | 2.91
Cc1ccc(C2c3cccn3-c3sc4c(c3CN2C(=O)NCc2ccccc2)CCCC4)cc1 (stereo not given) | -7.4 | 1.34 | 5.53 | 0.2 | 1.27
C[C@]12CC[C@@H]3c4ccc(O)cc4C[C@@H](CCCCCCCCCS(=O)CCCC(F)(F)C(F)(F)F)[C@H]3[C@@H]1CC[C@@H]2O (stereo not given in full) | -14 | 12.2 | 1.61 | -9.65 | 5.28
CCCn1c(=O)c2cc(Cl)ccc2n2c(SCC(=O)Nc3ccc(C)cc3)nnc12 | -4.92 | -10.3 | 6.59 | -7 | -2.55
CCC(C)NC(=O)Cn1nc2n(Cc3ccccc3)c(=O)c3ccc(C(=O)NCC(C)C)cc3n2c1=O (stereo not given) | 4.57 | 1.16 | 10.2 | 2.05 | 2.61
Cc1cnc(CC2CCN(S(=O)(=O)c3cn(C)cn3)C2)n1Cc1ccccc1 (stereo not given) | -0.356 | 0.606 | -5.35 | -5.86 | -1.68
Nc1ncnc2c1c(-c1cnc3[nH]ccc3c1)nn2C1CCCC1 | -3.91 | -17 | -5.04 | -77.2 | -88.6
Cc1ccc(Cn2c(=O)c3ccccc3n3c(SCC(=O)Nc4cccc(F)c4)nnc23)cc1 | -0.248 | 0 | 9.16 | 2.05 | 4.81
Cc1ccccc1N1C(=O)c2cc3occc3n2CC1(C)C(=O)NC1CCCCC1 (stereo not given) | -0.538 | 1.89 | 0.93 | 3.98 | -2.04
NC(=O)COc1cccc(CN2CCN(c3ccc(F)cc3F)CC2)c1 | -2.77 | 1.65 | -0.941 | -2.19 | -5.2
Cc1[nH]c2ccccc2c1C(=O)Cn1nc2n(Cc3ccccc3)c(=O)c3ccccc3n2c1=O | 1.87 | 4.65 | 6.46 | -0.95 | 1.23
COc1cccc(C(=O)N2CCN(C(=O)COc3cccc(C)c3)CC2)c1OC | -5.76 | -14.7 | -5.25 | -22.4 | -19.6
Cc1ccc2c(cnn2C(=O)CCCC(=O)N2CCN(c3ccccc3)CC2)c1 | 0.602 | 1.38 | 4.93 | 2.74 | 2.43
CCOCCCN1C(=O)c2c(NC(C)=O)c3cc(F)ccc3n2CC1(C)C(=O)NCCC(C)C (stereo not given) | 3.6 | 0.331 | 8.94 | 5.93 | 5.09
C/C=C/c1ccc2c(c1)[C@@H](C)[C@H](c1ccc(O)cc1)O2 | 0 | 5.83 | 3.55 | -66 | 4.17
